{"source": "paper PMC12136788", "binders": {"B1": {"name": "chr2:121339258:121339359:-|3pUTR|ENSG00000074054|unk|total|mutant (ssRNA)", "RNA": "GGGAGUUCUACAGUCCGACGAUCUUUUGAGAUUAAUUCUAAUAACGUAUUUGCUAUUGCAGUGCAGAGCCCACUGCAACUGCCCGGACUGAAAGCAGAGGCUGGGUGCCAGAGCACGUGAUUCUUAACAUCAUUUCCACAGACCAACAGAGGAUUGAGCAUCA"}, "B2": {"name": "ENSG00000124766:be:win_3201|3pUTR|ENSG00000124766|bound_else_gene|NA|bound_elsewhere_windowed (ssRNA)", "RNA": "GGGAGUUCUACAGUCCGACGAUCUAAAUCGCUGUUUGGAUUUCCUGAUUUUAUAACAGGGCGGCUGGUUAAUAUCUCACACAGUUUAAAAAAUCAGCCCCUAAUUUCUCCAUGUUUACACUUCAAUCUGCAGGCUUCUUAAAGCAACAGAGGAUUGAGCAUCA"}, "B3": {"name": "ENSG00000136731:stop:overlap|stop_codon|ENSG00000136731|stop_codon|NA|stop_codon (ssRNA)", "RNA": "GGGAGUUCUACAGUCCGACGAUCCCAUUACAACCUCUCUUACAACAAAAUGGUUUUCCACUCCAUUGUUGUUAGAAGCCAGAUAGCAGCUGAUGAACCUCCACCAGAAGGAUGUAAUUCGUUUUUUUCAGUGCAUGGAAAGAACAACAGAGGAUUGAGCAUCA"}, "B4": {"name": "chr1:185309019:185309167:-|CDS|ENSG00000116679|unk|total|mutant (ssRNA)", "RNA": "GGGAGUUCUACAGUCCGACGAUCGCACACAGAGCAGUGCCCGCUUGCUGCAGUCCCUAUUUAUUUGAAAUCUUUAACCGUGACCGUGAUCCUCAUGGAAUUUCUCACGUUAAAUUUGAUGAUCUCAAUCCAGAAGCUGUUGAACAACAGAGGAUUGAGCAUCA"}, "B5": {"name": "chr14:71588152:71588260:+|CDS|ENSG00000197555|unk|FALSE|unique (ssRNA)", "RNA": "GGGAGUUCUACAGUCCGACGAUCGAAAACAUAAAAGAAUCUAGCCGUUCAAGCCAGGAAAUAGAAACCUCAAGUUGCCUUGAUAGCCUGUCCUCCAAAAGCAGUCCUGUGAGUCAGGGAAGUUCUGUUAGCCUCAAUUCCAAUCAACAGAGGAUUGAGCAUCA"}, "B6": {"name": "chr1:1785892:1785993:-|3pUTR|ENSG00000078369|msi1|total|mutant (ssRNA)", "RNA": "GGGAGUUCUACAGUCCGACGAUCUUUACUCUCCGAAUCGCAUGCUGCCGAAAUGCUCAAAAGUGCAUAUGGGACUCAGUCCUCCGGUGUUCUUUUUCUUUUAAGAAAUAACCUCUUACAGUUGUAACCAUUGCGGCUCUGUCCCAACAGAGGAUUGAGCAUCA"}, "B7": {"name": "chr5:141516432:141516515:-|3pUTR|ENSG00000131504|msi1_unk|FALSE|overlapping (ssRNA)", "RNA": "GGGAGUUCUACAGUCCGACGAUCCUCAGACAAGGCCCAGCCUGCUUUUUCUCAGCCCUGACUUUCUAAUGGGCUUUCCCCCCUAGGUCAGUCUUGCUGGAUUUGUGCUUUUCUUUUGUGGUUUCUCUGGCCCUGAGAAUAGCACAACAGAGGAUUGAGCAUCA"}, "B8": {"name": "chr1:36180537:36180567:+|3pUTR|ENSG00000116871|msi1_unk|FALSE|overlapping (ssRNA)", "RNA": "GGGAGUUCUACAGUCCGACGAUCCAUACACACAUAUACACUCACAGCCUCUCUGGCCUCUUCCCUUGGGGAGGGGCCACCUGUAGUAUUUGCCUUGAUUUGGUGGGGUACAGUGGAUGUGAAUACUGUAAAUAGCUUGUGCUCCAACAGAGGAUUGAGCAUCA"}, "B9": {"name": "chr4:83459516:83462902:-|three_prime_utr|ENSG00000163322|control|control|control (ssRNA)", "RNA": "GGGAGUUCUACAGUCCGACGAUCUUACGGACCUUUUUUCCAAAUUCUGAAUUUCUUCAUUCAUGUGUUAUGUCUUUAAAAAAUAGACAUGUUUCUAAAAGUAGCUGUAACUACAACCACCAUCUCGAUGUAGUAGACAAUCUGCAACAGAGGAUUGAGCAUCA"}, "B10": {"name": "ENSG00000198589:be:win_3501|CDS|ENSG00000198589|bound_else_gene|NA|bound_elsewhere_windowed (ssRNA)", "RNA": "GGGAGUUCUACAGUCCGACGAUCUGAUACUGAAACUCAAGAUUCUAAAGAUUCUGGAAUUCAGACUAUGACAGCAUCAGGGUCUUCAGCUAUGUCACCAGAAACUACUGUUUCCCAAAUAGCUGUAGAAUCAGACCUUGGUCACAACAGAGGAUUGAGCAUCA"}, "B11": {"name": "chr1:220062840:220062943:-|CDS|ENSG00000162813|unk|FALSE|unique (ssRNA)", "RNA": "GGGAGUUCUACAGUCCGACGAUCGUUUACACAGGCAGGACCAGAUGCUGUGUUGGGGAGGACAAUCUGGGGAGUUUUAGGUUUAGGCGCCUUUGGGUUUCAGCUGAAAGAAGUCCCUGCUGGGAAACACAUUAUCACAACUACCAACAGAGGAUUGAGCAUCA"}, "B12": {"name": "ENSG00000147536:stop:overlap|stop_codon|ENSG00000147536|stop_codon|NA|stop_codon (ssRNA)", "RNA": "GGGAGUUCUACAGUCCGACGAUCUCCGCUACGUCCUCAGCAGCUACUUGCGGUGUCGCCUCAUGAAGUUCCCAAACCAGAUCUAGAUUCUUACGUGUUUCUGAGAGUGAGAGAACGACAAGAAAACAUACUGGUAGAACCAGACAACAGAGGAUUGAGCAUCA"}, "B13": {"name": "chrX:101413019:101413185:+|CDS|ENSG00000126945|unk|FALSE|unique (ssRNA)", "RNA": "GGGAGUUCUACAGUCCGACGAUCGGAGCUCUUCUUAAAUUCUACUGCAGGAACAAGUGGGGGUGCUUACGAUCACAGCUAUGUAGAACUUUUUUUGAAUUCUACAGCAGGGGCAAGUGGUGGCGCUUAUGGUAGCCAAAUGAUCAACAGAGGAUUGAGCAUCA"}, "B14": {"name": "chr20:5938399:5938502:-|3pUTR|ENSG00000089195|unk|FALSE|unique (ssRNA)", "RNA": "GGGAGUUCUACAGUCCGACGAUCGUCUGACUCUUAACCCUUUUGAGAAUUGCUCUGAAUUUUGUUCUCAGGCAUUAUACAGUUAGUAAUUAAACUUUAAAUGCCAUUACUACUUGUUUUUUCAUAUCCCAAGAAUAAGAACAUCAACAGAGGAUUGAGCAUCA"}, "B15": {"name": "chr7:92612324:92612425:-|3pUTR|ENSG00000105810|msi1|total|mutant (ssRNA)", "RNA": "GGGAGUUCUACAGUCCGACGAUCAUCCAACACAAGCAGUCUUGCCGUCCGGGCAUUUUGAAGCAGACCGCCGAGUAAGAACUCCGUGACUACAGCUUAUUCUUCUGUAACAUAUGGUUUCAAACAUCUUUGCCAAAAGCUAAGCAACAGAGGAUUGAGCAUCA"}, "B16": {"name": "chr8:27776916:27777017:+|CDS|ENSG00000171320|unk|FALSE|unique (ssRNA)", "RNA": "GGGAGUUCUACAGUCCGACGAUCAAACCACAAGUUACACUCCAGGGUGGAGCAGCAUUUUUUGUUAGAAAAAAAUCUUCUCUUAGAAAAUCGUCCCUGGAAAAUGAGCCGUCACUGGGACGCACCCAAAAGAGUAAAUCAGAACAACAGAGGAUUGAGCAUCA"}, "B17": {"name": "ENSG00000198589:be:win_151|CDS|ENSG00000198589|bound_else_gene|NA|bound_elsewhere_windowed (ssRNA)", "RNA": "GGGAGUUCUACAGUCCGACGAUCUUGACCGGUUUGGUUGAAGUUGGAGAAGUAUCCAAUAGGGAUAUUGUAGAAACUGUCUUUAACCUGUUGGUAGGAGGACAGUUUGAUCUGGAAAUGAAUUUCAUUAUCCAAGAAGGUGAGCAACAGAGGAUUGAGCAUCA"}, "B18": {"name": "chr15:60347444:60347559:-|3pUTR|ENSG00000182718|msi1_unk|total|mutant (ssRNA)", "RNA": "GGGAGUUCUACAGUCCGACGAUCUAACAGUCCCCGUGGCCAUCCCUGUGAGGGUGACGUCCGCAUUACCCCCAACCUCAUUUCCGUUGCCUAAGCAUUGCCUGGCCUUCCUGUCCCGUCUCUCCUGUAAGCCAAAGAAAUGAACAACAGAGGAUUGAGCAUCA"}, "B19": {"name": "chr14:51255895:51255996:+|3pUTR|ENSG00000139921|msi1_unk|FALSE|overlapping (ssRNA)", "RNA": "GGGAGUUCUACAGUCCGACGAUCGUGAAUCCAUUAGAUUUACAGUAUCGUAAUAUACAAGUUUUCUUUAAAGCCCUCUCCUUUAGAAUUUAAAAUAUUGUACCAUUGAAGAGUUUGGAUGUGUAACUUGUGAUGCCUUAGAAACAACAGAGGAUUGAGCAUCA"}, "B20": {"name": "chr2:216122066:216122255:+|CDS|ENSG00000079246|unk|total|mutant (ssRNA)", "RNA": "GGGAGUUCUACAGUCCGACGAUCCCAUGGGCCUUCCUUUCCACUAAAAGGAAUUACCGAACAGCAAAAAGAAGGUCUUGAGACCGUGAAAAUGGUGAUGAUAUCUUCCGAAGGUGAAGAUGGGUUGGAUGAAAUUUAUUCAUUCAACAGAGGAUUGAGCAUCA"}, "B21": {"name": "chr15:83017406:83017507:-|3pUTR|ENSG00000064726|msi1|FALSE|unique (ssRNA)", "RNA": "GGGAGUUCUACAGUCCGACGAUCGGCCUAAUAAAAUGCCCAAGAAAAUAUUCAGUGCAUUUAUAGAGAAGGAUAUUUUGUAGUAGUAUAGUAAUGUGUUAUGUAGUACAGUUUUAAAGCUAUAAAUGGAAUUUUGUGUAAAUUCAACAGAGGAUUGAGCAUCA"}, "B22": {"name": "chr6:113953301:113953428:-|CDS|ENSG00000196591|unk|FALSE|unique (ssRNA)", "RNA": "GGGAGUUCUACAGUCCGACGAUCAAAAACCAAAACUUAUGGAUUUGUUUUCAGGUAUCAUCAGAGAGUCUUAUAUAUUGAUAUAGAUAUUCAUCAUGGUGAUGGUGUUGAAGAAGCUUUUUAUACAACAGAUCGUGUAAUGACCAACAGAGGAUUGAGCAUCA"}}, "note": "The list shows a part of the results.", "data": [{"target": "MSI1 full-length (mouse, UniProt Q61474 1-362)", "sequence (Q61474 whole entry)": "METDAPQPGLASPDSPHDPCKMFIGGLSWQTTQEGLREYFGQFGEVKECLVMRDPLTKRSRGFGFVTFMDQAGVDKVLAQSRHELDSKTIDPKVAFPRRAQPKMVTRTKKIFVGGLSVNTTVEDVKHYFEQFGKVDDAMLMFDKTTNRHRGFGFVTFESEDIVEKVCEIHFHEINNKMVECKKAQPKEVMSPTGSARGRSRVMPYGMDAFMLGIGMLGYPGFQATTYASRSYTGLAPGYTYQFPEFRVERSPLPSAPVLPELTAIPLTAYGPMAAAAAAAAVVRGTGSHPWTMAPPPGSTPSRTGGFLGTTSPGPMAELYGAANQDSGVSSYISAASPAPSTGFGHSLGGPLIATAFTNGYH", "assay": "nsRBNS (natural sequence RNA bind-n-seq); RBNS binding buffer (assumed for nsRBNS): 25 mM Tris pH 7.5, 150 mM KCl, 3 mM MgCl2, 0.01% Triton X-100, 500 ug/ml BSA, 20 U/ml SUPERase-In, 4 C; UNK is unkempt and MSI1 is Musashi-1; names of the RNAs are library labels; protein concentration not given here; high values mean tight binding", "units": {"binding signal": "enrichment R"}, "values": [{"binder": "B1", "binding signal": 0.596}, {"binder": "B2", "binding signal": 0.493}, {"binder": "B3", "binding signal": 1.83}, {"binder": "B4", "binding signal": 0.398}, {"binder": "B5", "binding signal": 1.35}, {"binder": "B6", "binding signal": 0.378}, {"binder": "B7", "binding signal": 0.443}, {"binder": "B8", "binding signal": 0.399}, {"binder": "B9", "binding signal": 1.05}, {"binder": "B10", "binding signal": 0.215}, {"binder": "B11", "binding signal": 0.838}, {"binder": "B12", "binding signal": 26.3}, {"binder": "B13", "binding signal": 0.678}, {"binder": "B14", "binding signal": 0.767}, {"binder": "B15", "binding signal": 0.596}, {"binder": "B16", "binding signal": 1.48}, {"binder": "B17", "binding signal": 2.2}, {"binder": "B18", "binding signal": 0.538}, {"binder": "B19", "binding signal": 5.27}, {"binder": "B20", "binding signal": 0.285}, {"binder": "B21", "binding signal": 44.9}, {"binder": "B22", "binding signal": 0.581}]}]}
